Laboratory results reported in the supplement of paper PMC8728848.
The list shows a part of the results.

Key:
Experiment in all cases: glycan array binding signal (z-score within array); higher = stronger binding
Conditions in all cases: glycan notation: IUPAC condensed, linker removed; mutation: R186S
[1] = target: Fuc(a1-2)[GalNAc(a1-3)]Gal(b1-4)GlcNAc(b1-3)Gal(b1-4)GlcNAc
In short: (§1)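 Arrays were curated from the Consortium for Functional Glycomics database, 3228 in total, and kept only where the protein sequence was available. Binding is expressed as a within-array Z-score. This score was averaged across arrays of the same protein sequence at different concentrations or buffers and across linkers, and negative values can be read as non-binding.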

[2] = target: Fuc(a1-2)[GalNAc(a1-3)]Gal(b1-4)GlcNAc(b1-3)Gal(b1-4)GlcNAc(b1-3)Gal(b1-4)GlcNAc
In short: as §1

[3] = target: Fuc(a1-2)[GalNAc(a1-3)]Gal(b1-4)[Fuc(a1-3)]GlcNAc
In short: as §1

[4] = target: Fuc(a1-2)[GalNAc(a1-4)]Gal(b1-4)GlcNAc
In short: as §1

[5] = target: Fuc(a1-2)[GalNAc(b1-3)]Gal
In short: as §1

Fuc(a1-3)GlcNAc = target: Fuc(a1-3)GlcNAc
In short: as §1

[6] = target: Fuc(a1-3)[Gal(b1-4)]Glc6S
In short: as §1

[7] = target: Fuc(a1-3)[Gal(b1-4)]GlcNAc
In short: as §1

[8] = target: Fuc(a1-3)[Gal(b1-4)]GlcNAc(b1-2)Man(a1-3)[Fuc(a1-3)[Gal(b1-4)]GlcNAc(b1-2)Man(a1-6)]Man(b1-4)GlcNAc(b1-4)GlcNAc
In short: as §1

[9] = target: Fuc(a1-3)[Gal(b1-4)]GlcNAc(b1-3)Gal(b1-3)[Fuc(a1-4)]GlcNAc
In short: as §1

[10] = target: Fuc(a1-3)[Gal(b1-4)]GlcNAc(b1-3)GalNAc
In short: as §1

[11] = target: Fuc(a1-3)[Gal(b1-4)]GlcNAc(b1-4)Gal(b1-4)[Fuc(a1-3)]GlcNAc
In short: as §1

[12] = target: Fuc(a1-3)[Gal(b1-4)]GlcNAc(b1-4)Gal(b1-4)[Fuc(a1-3)]GlcNAc(b1-4)Gal(b1-4)[Fuc(a1-3)]GlcNAc
In short: as §1

[13] = target: Fuc(a1-3)[Gal(b1-4)]GlcNAc(b1-6)[Gal(b1-3)GlcNAc(b1-3)]Gal(b1-4)Glc
In short: as §1

[14] = target: Fuc(a1-3)[Gal(b1-4)]GlcNAc6S
In short: as §1

[15] = target: Fuc(a1-3)[Gal3S(b1-4)]GlcNAc
In short: as §1

[16] = target: Fuc(a1-3)[Gal3S(b1-4)]GlcNAc6S
In short: as §1

[17] = target: Fuc(a1-3)[GalNAc(b1-4)]GlcNAc
In short: as §1

Fuc(a1-4)GlcNAc = target: Fuc(a1-4)GlcNAc
In short: as §1

Fuc(b1-3)GlcNAc = target: Fuc(b1-3)GlcNAc
In short: as §1

Gal(a1-2)Gal = target: Gal(a1-2)Gal
In short: as §1

Gal(a1-3)Gal = target: Gal(a1-3)Gal
In short: as §1

Gal(a1-3)Gal(b1-3)GlcNAc = target: Gal(a1-3)Gal(b1-3)GlcNAc
In short: as §1

[18] = target: Gal(a1-3)Gal(b1-3)GlcNAc(b1-2)Man(a1-3)[Gal(a1-3)Gal(b1-3)GlcNAc(b1-2)Man(a1-6)]Man(b1-4)GlcNAc(b1-4)GlcNAc
In short: as §1

[19] = target: Gal(a1-3)Gal(b1-3)[Fuc(a1-4)]GlcNAc(b1-2)Man(a1-3)[Gal(a1-3)Gal(b1-3)[Fuc(a1-4)]GlcNAc(b1-2)Man(a1-6)]Man(b1-4)GlcNAc(b1-4)GlcNAc
In short: as §1

Gal(a1-3)Gal(b1-4)Glc = target: Gal(a1-3)Gal(b1-4)Glc
In short: as §1

Gal(a1-3)Gal(b1-4)GlcNAc = target: Gal(a1-3)Gal(b1-4)GlcNAc
In short: as §1

[20] = target: Gal(a1-3)Gal(b1-4)GlcNAc(b1-3)GalNAc
In short: as §1

[21] = target: Gal(a1-3)Gal(b1-4)[Fuc(a1-3)]GlcNAc
In short: as §1

[22] = target: Gal(a1-3)Gal(b1-4)[Fuc(a1-3)]GlcNAc(b1-2)Man(a1-3)[Gal(a1-3)Gal(b1-4)[Fuc(a1-3)]GlcNAc(b1-2)Man(a1-6)]Man(b1-4)GlcNAc(b1-4)GlcNAc
In short: as §1

Gal(a1-3)GalNAc = target: Gal(a1-3)GalNAc
In short: as §1

[23] = target: Gal(a1-3)[Gal(a1-4)]Gal(b1-4)GlcNAc
In short: as §1

[24] = target: Gal(a1-4)Gal(b1-3)GlcNAc(b1-2)Man(a1-3)[Gal(a1-4)Gal(b1-3)GlcNAc(b1-2)Man(a1-6)]Man(b1-4)GlcNAc(b1-4)GlcNAc
In short: as §1

Gal(a1-4)Gal(b1-4)Glc = target: Gal(a1-4)Gal(b1-4)Glc
In short: as §1

Gal(a1-4)Gal(b1-4)GlcNAc = target: Gal(a1-4)Gal(b1-4)GlcNAc
In short: as §1

[25] = target: Gal(a1-4)Gal(b1-4)GlcNAc(b1-2)Man(a1-3)[Gal(a1-4)Gal(b1-4)GlcNAc(b1-2)Man(a1-6)]Man(b1-4)GlcNAc(b1-4)GlcNAc
In short: as §1

[26] = target: Gal(a1-4)Gal(b1-4)GlcNAc(b1-3)Gal(b1-4)Glc
In short: as §1

Gal(a1-4)GlcNAc = target: Gal(a1-4)GlcNAc
In short: as §1

Gal(a1-6)Glc = target: Gal(a1-6)Glc
In short: as §1

Gal(b1-2)Gal = target: Gal(b1-2)Gal
In short: as §1

Gal(b1-3)Gal = target: Gal(b1-3)Gal
In short: as §1

Gal(b1-3)Gal(b1-4)GlcNAc = target: Gal(b1-3)Gal(b1-4)GlcNAc
In short: as §1

[27] = target: Gal(b1-3)Gal(b1-4)GlcNAc(b1-2)Man(a1-3)[Gal(b1-3)Gal(b1-4)GlcNAc(b1-2)Man(a1-6)]Man(b1-4)GlcNAc(b1-4)GlcNAc
In short: as §1

Gal(b1-3)GalNAc = target: Gal(b1-3)GalNAc
In short: as §1

[28] = target: Gal(b1-3)GalNAc(a1-3)[Fuc(a1-2)]Gal(b1-4)Glc
In short: as §1

B1: Gal 3 (Homo sapiens), P17931 (protein)
chain: MADNFSLHDALSGSGNPNPQGWPGAWGNQPAGAGGYPGASYPGAYPGQAPPGAYPGQAPPGAYHGAPGAYPGAPAPGVYPGPPSGPGAYPSSGQPSAPGAYPATGPYGAPAGPLIVPYNLPLPGGVVPRMLITILGTVKPNANILDFQRGNDVAFHFNPRFNENNRRVIVCNTKLDNNWGREESQSVFPFESGKPFKIQVLVEPDHFKVAVNDAHLLQYNHRVKKLNEISKLGISGDIDLTSASYTMI
- glycan array binding signal (z-score) [1]: 0.011
- glycan array binding signal (z-score) [2]: -0.015
- glycan array binding signal (z-score) [3]: -0.021
- glycan array binding signal (z-score) [4]: -0.073
- glycan array binding signal (z-score) [5]: -0.066
- glycan array binding signal (z-score) (Fuc(a1-3)GlcNAc): -0.067
- glycan array binding signal (z-score) [6]: -0.096
- glycan array binding signal (z-score) [7]: -0.036
- glycan array binding signal (z-score) [8]: 0.045
- glycan array binding signal (z-score) [9]: -0.056
- glycan array binding signal (z-score) [10]: -0.049
- glycan array binding signal (z-score) [11]: -0.026
- glycan array binding signal (z-score) [12]: -0.082
- glycan array binding signal (z-score) [13]: -0.047
- glycan array binding signal (z-score) [14]: -0.024
- glycan array binding signal (z-score) [15]: -0.039
- glycan array binding signal (z-score) [16]: -0.063
- glycan array binding signal (z-score) [17]: -0.042
- glycan array binding signal (z-score) (Fuc(a1-4)GlcNAc): -0.066
- glycan array binding signal (z-score) (Fuc(b1-3)GlcNAc): -0.041
- glycan array binding signal (z-score) (Gal(a1-2)Gal): -0.055
- glycan array binding signal (z-score) (Gal(a1-3)Gal): -0.009
- glycan array binding signal (z-score) (Gal(a1-3)Gal(b1-3)GlcNAc): -0.064
- glycan array binding signal (z-score) [18]: -0.025
- glycan array binding signal (z-score) [19]: -0.091
- glycan array binding signal (z-score) (Gal(a1-3)Gal(b1-4)Glc): -0.045
- glycan array binding signal (z-score) (Gal(a1-3)Gal(b1-4)GlcNAc): -0.08
- glycan array binding signal (z-score) [20]: -0.053
- glycan array binding signal (z-score) [21]: -0.082
- glycan array binding signal (z-score) [22]: -0.061
- glycan array binding signal (z-score) (Gal(a1-3)GalNAc): -0.061
- glycan array binding signal (z-score) [23]: -0.044
- glycan array binding signal (z-score) [24]: -0.022
- glycan array binding signal (z-score) (Gal(a1-4)Gal(b1-4)Glc): -0.059
- glycan array binding signal (z-score) (Gal(a1-4)Gal(b1-4)GlcNAc): -0.071
- glycan array binding signal (z-score) [25]: -0.085
- glycan array binding signal (z-score) [26]: -0.045
- glycan array binding signal (z-score) (Gal(a1-4)GlcNAc): -0.058
- glycan array binding signal (z-score) (Gal(a1-6)Glc): -0.075
- glycan array binding signal (z-score) (Gal(b1-2)Gal): -0.067
- glycan array binding signal (z-score) (Gal(b1-3)Gal): -0.057
- glycan array binding signal (z-score) (Gal(b1-3)Gal(b1-4)GlcNAc): -0.075
- glycan array binding signal (z-score) [27]: -0.045
- glycan array binding signal (z-score) (Gal(b1-3)GalNAc): -0.066
- glycan array binding signal (z-score) [28]: -0.084
